According to PubChem BioAssay AID504339 (National Center for Advancing Translational Sciences (NCATS), 2011):
Values joined by “and” are separate entries in the source; they are usually repeats but may differ in a detail not shown here. Identical values can stand only once. Out of some 390,000 compounds screened, about 17,000 (4.4%) were called active. Inconclusive results, whose numbers are uncertain, are shown with a selection of clear calls. Calls come from the whole dose curve; as a rule, active = well fitted inhibition curve with a large enough effect; inconclusive = small, poorly fitted or top-dose-only effect; inactive = no such curve, though single readings can be large or run the other way. Potencies beside an inconclusive call are fits to weak or partial responses and may not hold up.

molecular target: Lysine-specific demethylase 4A (Homo sapiens) (UniProt O75164); assay: qHTS Assay for Inhibitors of JMJD2A-Tudor Domain; settings: AlphaScreen JMJD2A-Tudor / H3K4me3 peptide binding; activity change, negative = inhibition: at 114 µM (top of the series); note: nearly all actives have a fitted effect of over 50% in size
Chain of UniProt O75164 (O75164 whole entry, looked up, the tested form may be a part): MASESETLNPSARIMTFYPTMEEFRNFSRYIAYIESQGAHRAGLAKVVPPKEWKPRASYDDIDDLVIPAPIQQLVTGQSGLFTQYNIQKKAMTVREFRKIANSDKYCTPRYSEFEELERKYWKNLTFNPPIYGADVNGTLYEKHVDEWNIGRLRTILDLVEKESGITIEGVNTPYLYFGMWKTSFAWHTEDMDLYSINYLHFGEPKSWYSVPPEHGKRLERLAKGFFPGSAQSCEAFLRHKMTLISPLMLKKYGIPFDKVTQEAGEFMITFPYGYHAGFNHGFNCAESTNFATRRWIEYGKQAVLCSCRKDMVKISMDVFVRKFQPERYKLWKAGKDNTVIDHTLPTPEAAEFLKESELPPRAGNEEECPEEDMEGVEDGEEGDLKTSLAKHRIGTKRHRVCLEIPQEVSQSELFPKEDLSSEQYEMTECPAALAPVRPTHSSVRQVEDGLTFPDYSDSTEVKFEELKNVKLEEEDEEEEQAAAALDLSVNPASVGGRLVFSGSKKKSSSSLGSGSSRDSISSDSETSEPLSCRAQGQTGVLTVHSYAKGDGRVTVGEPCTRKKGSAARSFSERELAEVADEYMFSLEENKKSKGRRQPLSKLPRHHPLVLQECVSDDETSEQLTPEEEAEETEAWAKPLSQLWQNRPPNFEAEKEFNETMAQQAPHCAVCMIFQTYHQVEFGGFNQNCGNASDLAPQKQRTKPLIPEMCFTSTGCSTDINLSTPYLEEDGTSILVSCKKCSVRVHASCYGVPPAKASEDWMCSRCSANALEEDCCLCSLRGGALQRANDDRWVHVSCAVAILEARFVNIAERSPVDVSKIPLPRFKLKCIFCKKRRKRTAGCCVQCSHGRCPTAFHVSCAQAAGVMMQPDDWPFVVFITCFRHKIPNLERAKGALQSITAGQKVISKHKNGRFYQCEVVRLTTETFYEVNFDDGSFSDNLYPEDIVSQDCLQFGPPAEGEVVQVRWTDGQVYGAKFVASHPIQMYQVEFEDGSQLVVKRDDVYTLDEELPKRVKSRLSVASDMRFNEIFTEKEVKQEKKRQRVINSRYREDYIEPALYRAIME
% is set by controls: 0 for no effect and ±100 for the full control effect; potency is the fitted concentration of half-maximal effect; tags give direction and shape of the fitted curve.

Row | SMILES | Potency | activity change, negative = inhibition
1 | Fc1ccc(-c2ccc(CNCCSc3nnnn3-c3ccccc3)o2)cc1 | inconclusive: 50.1 µM [inhibitor, partial curve] | –
2 | Nc1c2c(nc3ccn(-c4ccccc4)c(=O)c13)CCCCC2 | – | inactive: -11.9%
3 | Cc1cc(C)nc(Nc2cccc3ccccc23)n1 | – | inactive: -7.82%
4 | CCOC(=O)c1c(NC(=O)C(C)OC(=O)c2ccc(NC(=O)CC#N)cc2)sc2c1CCCC2 (stereo unspecified) | inconclusive: 56.2 µM [inhibitor, partial curve] | –
5 | COc1ccccc1-c1ocnc1C(=O)Nc1ccc(N2CCOCC2)cc1N1CCOCC1 | inconclusive: 50.1 µM [inhibitor, partial curve] | –
6 | CCC1CN(C(=O)Nc2cccc3c2CCCC3)c2cc(Cl)ccc2O1 (stereo unspecified) | – | inactive: 35.9%
7 | O=C(NCCCN1CCOCC1)c1ccc2c(=O)n(Cc3cccc(Br)c3)c(=S)[nH]c2c1 | inconclusive: 11.2 µM [inhibitor, full curve, poor fit] | –
8 | CCc1ccc(-c2cc3c(=O)n(CC(=O)NCCCN4CCN(C)CC4)ncn3n2)cc1 | inconclusive: 28.2 µM [inhibitor, single point] | –
9 | O=C1N=c2ccc([N+](=O)[O-])cc2=C1c1sc(=O)[nH]c1O | inconclusive: 0.631 µM [inhibitor, full curve, poor fit] | –
10 | CC(=O)C1=C(O)C(=O)N(CC#N)C1c1cccs1 (stereo unspecified) | active: 79.4 µM | –
11 | CC(=O)Oc1ccc2nonc2c1OC(C)=O | inconclusive: 39.8 µM [inhibitor, single point] | –
12 | NC(=O)COc1ccc(-n2cnnn2)cc1 | inconclusive: 56.2 µM [inhibitor, partial curve] | –
13 | CC1(C)CC(Nc2ccc(Nc3ccccc3)cc2)CC(C)(C)N1 | active: 44.7 µM | –
14 | CCc1ccc2[nH]c(=O)c(CN(Cc3ccccc3)Cc3nnnn3Cc3ccco3)cc2c1 | inconclusive: 56.2 µM [inhibitor, partial curve] | –
15 | COc1ccc(CNC(=O)C2=C(C)C(=O)OC23CCCCC3)cc1 | – | inactive: -18.7%
16 | O=C(CN1C(=O)/C(=C/c2ccc(F)cc2)SC1=S)N1CCN(CCc2ccccn2)CC1 | inconclusive: 89.1 µM [inhibitor, single point] | –
17 | COC(=O)c1ccc(N2CCC(c3cc(-c4ccc(OC)cc4)n[nH]3)CC2)c([N+](=O)[O-])c1 | inconclusive: 11.2 µM [inhibitor, full curve] | –
18 | O=C1N=c2ccccc2=C1c1sc(NS(=O)(=O)Cc2ccccc2)nc1O | inconclusive: 44.7 µM [inhibitor, partial curve] | –
19 | Cc1cccc(Oc2nc(CN3CCOCC3)nc3sc4c(c23)CCCC4)c1 | inconclusive: 56.2 µM [inhibitor, partial curve] | –
20 | CC(=O)Nc1ccc(S(=O)(=O)N2CCC(c3nnc(-c4ccc(C)cc4)o3)CC2)cc1 | inactive | –
21 | O=C(c1ccco1)N1N=C(c2cccs2)CC1c1cc([N+](=O)[O-])ccc1O (stereo unspecified) | inconclusive: 56.2 µM [inhibitor, partial curve, poor fit] | –

Row | SMILES | Potency | activity change, negative = inhibition
22 | COc1cc(CN2CCN(c3ccccc3F)CC2)c([N+](=O)[O-])cc1OC | inconclusive: 39.8 µM [inhibitor, single point] | –
23 | Cc1oc2c(cc(NS(=O)(=O)c3ccc(C(C)C)cc3)c3ccccc32)c1C(=O)O | inconclusive: 50.1 µM [inhibitor, partial curve] and inconclusive: 25.1 µM [inhibitor, partial curve] | –
24 | COc1ccc(NC(=O)CCS(=O)(=O)c2ccc3c(c2)NC(=O)C(C)S3)cc1OC (stereo unspecified) | active: 17.8 µM | –
25 | CCOc1ccc(C(=O)Nc2ccccc2CC)cc1[N+](=O)[O-] | inconclusive: 17.8 µM [inhibitor, partial curve] | –
26 | COC(=O)C1=C(O)/C(=C\c2ccc(CNC(=O)C(=O)Nc3ccc(C)cc3)o2)N=C1C | inconclusive: 89.1 µM [inhibitor, single point] | –
27 | CCOC(=O)c1[nH]cnc1C(=O)NCc1ccccc1 | inconclusive: 89.1 µM [inhibitor, partial curve] | –
28 | COc1cccc(NC(=O)C(Sc2nnc(Nc3ccccc3C)s2)c2ccccc2)c1 (stereo unspecified) | – | inactive: -15.6%
29 | O=C1/C(=C/c2ccncc2)SC(=S)N1N1CCOCC1 | – | inactive: -20.8%
30 | COc1ccc(C2Nc3ccccc3C(=O)N2Cc2ccccc2C(F)(F)F)cc1COc1ccc(NC(C)=O)cc1 (stereo unspecified) | inconclusive: 63.1 µM [inhibitor, partial curve, poor fit] | –
31 | Cc1ccc(-n2c(C)cc(/C=c3/sc4nc5ccccc5n4c3=O)c2C)cc1 | inconclusive: 3.55 µM [inhibitor, single point] | –
32 | CCN(CC)S(=O)(=O)c1cc([N+](=O)[O-])ccc1NNC(=O)Nc1ccccc1OC | inconclusive: 79.4 µM [inhibitor, single point] | –
33 | CCOc1ccc(C(=O)Nc2nnc(S(=O)(=O)Nc3ccccc3)s2)cc1 | inconclusive: 4.47 µM [inhibitor, full curve, poor fit] | –
34 | CC1CN(C(=O)N2CCC(C(=O)N3CCN(c4ccccc4)CC3)CC2)c2cc(Cl)ccc2O1 (stereo unspecified) | inconclusive: 56.2 µM [inhibitor, partial curve] | –
35 | COc1cccc(C2NC(=O)NC(C)=C2C(=O)OCC2CCCCC2)c1 (stereo unspecified) | – | inactive: -9.51%
36 | COc1ccc(C(=O)COC(=O)CCNS(=O)(=O)c2ccccc2)c(OC)c1 | inconclusive: 50.1 µM [inhibitor, partial curve] | –
37 | CC[N+]1=CN(c2ccccc2)C(C)=CC1(C)C | inconclusive: 28.2 µM [inhibitor, single point] | –
38 | Cc1ccc(-c2nc3ncccn3c2Nc2ccc3c(c2)OCCO3)o1 | inconclusive: 56.2 µM [inhibitor, partial curve] | –
39 | COc1ccc(OC)c(C(=O)NC(CC(N)=O)c2ccc(N3CCCCCC3)c([N+](=O)[O-])c2)c1 (stereo unspecified) | inconclusive: 56.2 µM [inhibitor, partial curve] | –
40 | COc1ccc(C(=O)NC(=S)N2CCOCC2)cc1[N+](=O)[O-] | – | inactive: -4.14%
41 | Cc1ccc2c(CC(=O)Nc3ccc(S(=O)(=O)N4CCCCC4C)cc3)coc2c1 (stereo unspecified) | – | inactive: -21.9%
